The record followed here is article PMC9911399, “Two distinct binding modes provide the RNA-binding protein RbFox with extraordinary sequence specificity”.

B1: AGUGCCC (DNA:RNA)
RNA: GGGAGACCGGAAUUCAGAUUGUCCAGUGCCCUUAAAUCCCGUCGUAGCCACCA
DNA 1: CAATCTGAATTCCGGTCTCCC
DNA 2: TGGTGGCTACGACGGGATT
B2: CCUAUCU (DNA:RNA)
RNA: B1 RNA with A25C, G26C, G28A, C29U, C31U
DNA 1: CAATCTGAATTCCGGTCTCCC
DNA 2: TGGTGGCTACGACGGGATT
B3: AAGGUUA (DNA:RNA)
RNA: B1 RNA with G26A, U27G, C29U, C30U, C31A
DNA 1: CAATCTGAATTCCGGTCTCCC
DNA 2: TGGTGGCTACGACGGGATT
B4: GAAGUCU (DNA:RNA)
RNA: B1 RNA with A25G, G26A, U27A, C29U, C31U
DNA 1: CAATCTGAATTCCGGTCTCCC
DNA 2: TGGTGGCTACGACGGGATT
B5: AAGCGGC (DNA:RNA)
RNA: B1 RNA with G26A, U27G, G28C, C29G, C30G
DNA 1: CAATCTGAATTCCGGTCTCCC
DNA 2: TGGTGGCTACGACGGGATT
B6: UAUUUAA (DNA:RNA)
RNA: B1 RNA with A25U, G26A, G28U, C29U, C30A, C31A
DNA 1: CAATCTGAATTCCGGTCTCCC
DNA 2: TGGTGGCTACGACGGGATT
B7: CAAGGCA (DNA:RNA)
RNA: B1 RNA with A25C, G26A, U27A, C29G, C31A
DNA 1: CAATCTGAATTCCGGTCTCCC
DNA 2: TGGTGGCTACGACGGGATT
B8: UCUCCUC (DNA:RNA)
RNA: B1 RNA with A25U, G26C, G28C, C30U
DNA 1: CAATCTGAATTCCGGTCTCCC
DNA 2: TGGTGGCTACGACGGGATT
B9: ACGCUGU (DNA:RNA)
RNA: B1 RNA with G26C, U27G, G28C, C29U, C30G, C31U
DNA 1: CAATCTGAATTCCGGTCTCCC
DNA 2: TGGTGGCTACGACGGGATT
B10: UUGGGCU (DNA:RNA)
RNA: B1 RNA with A25U, G26U, U27G, C29G, C31U
DNA 1: CAATCTGAATTCCGGTCTCCC
DNA 2: TGGTGGCTACGACGGGATT
B11: CGCUGGU (DNA:RNA)
RNA: B1 RNA with A25C, U27C, G28U, C29G, C30G, C31U
DNA 1: CAATCTGAATTCCGGTCTCCC
DNA 2: TGGTGGCTACGACGGGATT
B12: CGCCGAG (DNA:RNA)
RNA: B1 RNA with A25C, U27C, G28C, C29G, C30A, C31G
DNA 1: CAATCTGAATTCCGGTCTCCC
DNA 2: TGGTGGCTACGACGGGATT
B13: CCUCGCC (DNA:RNA)
RNA: B1 RNA with A25C, G26C, G28C, C29G
DNA 1: CAATCTGAATTCCGGTCTCCC
DNA 2: TGGTGGCTACGACGGGATT
B14: ACUUGGC (DNA:RNA)
RNA: B1 RNA with G26C, G28U, C29G, C30G
DNA 1: CAATCTGAATTCCGGTCTCCC
DNA 2: TGGTGGCTACGACGGGATT
B15: UUUAUUC (DNA:RNA)
RNA: B1 RNA with A25U, G26U, G28A, C29U, C30U
DNA 1: CAATCTGAATTCCGGTCTCCC
DNA 2: TGGTGGCTACGACGGGATT
B16: UCAUCAC (DNA:RNA)
RNA: B1 RNA with A25U, G26C, U27A, G28U, C30A
DNA 1: CAATCTGAATTCCGGTCTCCC
DNA 2: TGGTGGCTACGACGGGATT
B17: GACCGGA (DNA:RNA)
RNA: GGGAGACCGGAAUUCAGAUUGUCCGACCGGAUUAAAUCCCGUCGUAGCCACCA
DNA 1: CAATCTGAATTCCGGTCTCCC
DNA 2: TGGTGGCTACGACGGGATT
B18: AAGUACU (DNA:RNA)
RNA: B1 RNA with G26A, U27G, G28U, C29A, C31U
DNA 1: CAATCTGAATTCCGGTCTCCC
DNA 2: TGGTGGCTACGACGGGATT
B19: GGUCUUA (DNA:RNA)
RNA: B17 RNA with A26G, C27U, G29U, G30U
DNA 1: CAATCTGAATTCCGGTCTCCC
DNA 2: TGGTGGCTACGACGGGATT
B20: UCGCAGA (DNA:RNA)
RNA: B17 RNA with G25U, A26C, C27G, G29A
DNA 1: CAATCTGAATTCCGGTCTCCC
DNA 2: TGGTGGCTACGACGGGATT

Substitutions are numbered along the chain they refer to; changes in the protein carry UniProt numbers. Some of the results follow.

The assay concerns the target T1, RBFOX1 RRM (Homo sapiens, UniProt Q9NWB1 109-208).
T1 sequence: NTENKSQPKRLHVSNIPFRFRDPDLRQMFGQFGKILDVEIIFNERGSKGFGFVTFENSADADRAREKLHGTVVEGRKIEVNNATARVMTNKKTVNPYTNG
Briefly: EMSA; HiTS-Eq, 1 nM pool, 10 min; buffer printed only for the single-RNA assays: 10 mM Tris pH 7.5, 150 mM NaCl, 3.4 mM EDTA, 0.001% NP-40, 30 C. As to conditions: tags: His6 N-terminal (pET28a); label: 5' 32P. The method in brief:
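Purified RbFox RRM (wild type or mutant) was equilibrated for 10 min in 50 µL with 1 nM of a 5′-radiolabelled pool of RNA with 7 randomized nucleotides, its flanks annealed to DNA oligonucleotides, across increasing protein concentrations. Free RNA was separated by 8% native PAGE, excised, reverse-transcribed, PCR-barcoded and sequenced on an Illumina HiSeq 2500. Relative association constants came from read-count changes of each variant against the control reaction, normalised to the cognate motif.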
B1: the binding signal is 0.00775 KA relative to UGCAUGU.

For the molecule B2, the binding signal is 0.00242 KA relative to UGCAUGU.

On to B3, for which the binding signal was 0.00344 KA relative to UGCAUGU.

With B4, the binding signal was 0.0143 KA relative to UGCAUGU.

On to B5, for which the binding signal is 0.00979 KA relative to UGCAUGU.

Consider B6, for which the binding signal was 0.00757 KA relative to UGCAUGU.

On to B7, for which the binding signal is 0.0111 KA relative to UGCAUGU.

Turning to B8, the binding signal was 0.00621 KA relative to UGCAUGU.

In the case of B9, the binding signal is 0.01 KA relative to UGCAUGU.

Regarding B10, the binding signal is 0.0195 KA relative to UGCAUGU.

As for B11, the binding signal is 0.0211 KA relative to UGCAUGU.

In the case of B12, the binding signal was 0.0113 KA relative to UGCAUGU.

Regarding B13, the binding signal is 0.00761 KA relative to UGCAUGU.

Regarding B14, the binding signal is 0.00926 KA relative to UGCAUGU.

As for B15, the binding signal is 0.00475 KA relative to UGCAUGU.

On to B16, for which the binding signal was 0.000525 KA relative to UGCAUGU.

In the case of B17, the binding signal was 0.0036 KA relative to UGCAUGU.

On to B18, for which the binding signal is 0.00286 KA relative to UGCAUGU.

B19: the binding signal was 0.00992 KA relative to UGCAUGU.

As for B20, the binding signal is 0.013 KA relative to UGCAUGU.
